{"source": "paper PMC9911399", "about": "“Two distinct binding modes provide the RNA-binding protein RbFox with extraordinary sequence specificity”", "binders": {"B1": {"name": "GCUGAAC (DNA:RNA)", "RNA": "GGGAGACCGGAAUUCAGAUUGUCCGCUGAACUUAAAUCCCGUCGUAGCCACCA", "DNA 1": "CAATCTGAATTCCGGTCTCCC", "DNA 2": "TGGTGGCTACGACGGGATT"}, "B2": {"name": "GCGAAAA (DNA:RNA)", "RNA": "B1 RNA with U27G, G28A, C31A", "DNA 1": "CAATCTGAATTCCGGTCTCCC", "DNA 2": "TGGTGGCTACGACGGGATT"}, "B3": {"name": "GCAUGAU (DNA:RNA)", "RNA": "B1 RNA with U27A, G28U, A29G, C31U", "DNA 1": "CAATCTGAATTCCGGTCTCCC", "DNA 2": "TGGTGGCTACGACGGGATT"}, "B4": {"name": "AACAUUU (DNA:RNA)", "RNA": "GGGAGACCGGAAUUCAGAUUGUCCAACAUUUUUAAAUCCCGUCGUAGCCACCA", "DNA 1": "CAATCTGAATTCCGGTCTCCC", "DNA 2": "TGGTGGCTACGACGGGATT"}, "B5": {"name": "CUAGAGU (DNA:RNA)", "RNA": "B1 RNA with G25C, C26U, U27A, A30G, C31U", "DNA 1": "CAATCTGAATTCCGGTCTCCC", "DNA 2": "TGGTGGCTACGACGGGATT"}, "B6": {"name": "AGGGAGU (DNA:RNA)", "RNA": "B4 RNA with A26G, C27G, A28G, U29A, U30G", "DNA 1": "CAATCTGAATTCCGGTCTCCC", "DNA 2": "TGGTGGCTACGACGGGATT"}, "B7": {"name": "GAUACCC (DNA:RNA)", "RNA": "B1 RNA with C26A, G28A, A29C, A30C", "DNA 1": "CAATCTGAATTCCGGTCTCCC", "DNA 2": "TGGTGGCTACGACGGGATT"}, "B8": {"name": "UCGGCCC (DNA:RNA)", "RNA": "B1 RNA with G25U, U27G, A29C, A30C", "DNA 1": "CAATCTGAATTCCGGTCTCCC", "DNA 2": "TGGTGGCTACGACGGGATT"}, "B9": {"name": "AAGACAC (DNA:RNA)", "RNA": "B4 RNA with C27G, U29C, U30A, U31C", "DNA 1": "CAATCTGAATTCCGGTCTCCC", "DNA 2": "TGGTGGCTACGACGGGATT"}, "B10": {"name": "CCUUGAU (DNA:RNA)", "RNA": "B1 RNA with G25C, G28U, A29G, C31U", "DNA 1": "CAATCTGAATTCCGGTCTCCC", "DNA 2": "TGGTGGCTACGACGGGATT"}, "B11": {"name": "ACCAUCA (DNA:RNA)", "RNA": "B4 RNA with A26C, U30C, U31A", "DNA 1": "CAATCTGAATTCCGGTCTCCC", "DNA 2": "TGGTGGCTACGACGGGATT"}, "B12": {"name": "CUUAGUG (DNA:RNA)", "RNA": "B4 RNA with A25C, A26U, C27U, U29G, U31G", "DNA 1": "CAATCTGAATTCCGGTCTCCC", "DNA 2": "TGGTGGCTACGACGGGATT"}, "B13": {"name": "UGAGUAA (DNA:RNA)", "RNA": "B1 RNA with G25U, C26G, U27A, A29U, C31A", "DNA 1": "CAATCTGAATTCCGGTCTCCC", "DNA 2": "TGGTGGCTACGACGGGATT"}, "B14": {"name": "CAGCCCU (DNA:RNA)", "RNA": "B4 RNA with A25C, C27G, A28C, U29C, U30C", "DNA 1": "CAATCTGAATTCCGGTCTCCC", "DNA 2": "TGGTGGCTACGACGGGATT"}, "B15": {"name": "GUGACCC (DNA:RNA)", "RNA": "B1 RNA with C26U, U27G, G28A, A29C, A30C", "DNA 1": "CAATCTGAATTCCGGTCTCCC", "DNA 2": "TGGTGGCTACGACGGGATT"}, "B16": {"name": "UGGCAAG (DNA:RNA)", "RNA": "B1 RNA with G25U, C26G, U27G, G28C, C31G", "DNA 1": "CAATCTGAATTCCGGTCTCCC", "DNA 2": "TGGTGGCTACGACGGGATT"}, "B17": {"name": "GAAAUGU (DNA:RNA)", "RNA": "B4 RNA with A25G, C27A, U30G", "DNA 1": "CAATCTGAATTCCGGTCTCCC", "DNA 2": "TGGTGGCTACGACGGGATT"}, "B18": {"name": "CGACCCU (DNA:RNA)", "RNA": "B4 RNA with A25C, A26G, C27A, A28C, U29C, U30C", "DNA 1": "CAATCTGAATTCCGGTCTCCC", "DNA 2": "TGGTGGCTACGACGGGATT"}, "B19": {"name": "GGAGUCC (DNA:RNA)", "RNA": "B1 RNA with C26G, U27A, A29U, A30C", "DNA 1": "CAATCTGAATTCCGGTCTCCC", "DNA 2": "TGGTGGCTACGACGGGATT"}, "B20": {"name": "CAGUACA (DNA:RNA)", "RNA": "B4 RNA with A25C, C27G, A28U, U29A, U30C, U31A", "DNA 1": "CAATCTGAATTCCGGTCTCCC", "DNA 2": "TGGTGGCTACGACGGGATT"}}, "note": "Changes are numbered by the printed parent chain; changes in the protein carry UniProt numbers. The list shows a part of the results."}
{"target": "T1, RBFOX1 RRM RbFoxmut (Fox-RRM*) (Homo sapiens, UniProt Q9NWB1 109-208, R118D;E147R;N151S;E152T)", "T1 sequence": "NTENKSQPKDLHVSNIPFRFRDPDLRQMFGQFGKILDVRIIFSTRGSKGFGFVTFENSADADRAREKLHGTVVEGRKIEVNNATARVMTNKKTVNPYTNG", "assay": "EMSA; HiTS-Eq, 1 nM pool, 10 min; buffer printed only for the single-RNA assays: 10 mM Tris pH 7.5, 150 mM NaCl, 3.4 mM EDTA, 0.001% NP-40, 30 C", "conditions": "tags: His6 N-terminal (pET28a); label: 5' 32P", "outline": "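Relative association constants, normalised to the cognate motif, were derived by comparing read counts of each RNA species with those of the control reaction. The RNA sequenced was the free fraction, separated by 8% native PAGE after a 10 min equilibration in 50 µL of 1 nM 5′-radiolabelled RNA (7 randomized nucleotides) with increasing concentrations of purified wild-type or mutant RbFox RRM.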"}
{"binder": "B1", "binding signal": "0.0724 KA relative to UGCAUGU"}
{"binder": "B2", "binding signal": "0.0802 KA relative to UGCAUGU"}
{"binder": "B3", "binding signal": "0.551 KA relative to UGCAUGU"}
{"binder": "B4", "binding signal": "0.0677 KA relative to UGCAUGU"}
{"binder": "B5", "binding signal": "0.107 KA relative to UGCAUGU"}
{"binder": "B6", "binding signal": "0.151 KA relative to UGCAUGU"}
{"binder": "B7", "binding signal": "0.0638 KA relative to UGCAUGU"}
{"binder": "B8", "binding signal": "0.0703 KA relative to UGCAUGU"}
{"binder": "B9", "binding signal": "0.0662 KA relative to UGCAUGU"}
{"binder": "B10", "binding signal": "0.0784 KA relative to UGCAUGU"}
{"binder": "B11", "binding signal": "0.085 KA relative to UGCAUGU"}
{"binder": "B12", "binding signal": "0.151 KA relative to UGCAUGU"}
{"binder": "B13", "binding signal": "0.0902 KA relative to UGCAUGU"}
{"binder": "B14", "binding signal": "0.1 KA relative to UGCAUGU"}
{"binder": "B15", "binding signal": "0.0824 KA relative to UGCAUGU"}
{"binder": "B16", "binding signal": "0.103 KA relative to UGCAUGU"}
{"binder": "B17", "binding signal": "0.0843 KA relative to UGCAUGU"}
{"binder": "B18", "binding signal": "0.0969 KA relative to UGCAUGU"}
{"binder": "B19", "binding signal": "0.135 KA relative to UGCAUGU"}
{"binder": "B20", "binding signal": "0.0878 KA relative to UGCAUGU"}
